B1: ENSG00000124766:be:win_3051|3pUTR|ENSG00000124766|bound_else_gene|NA|bound_elsewhere_windowed (ssRNA)
RNA: GGGAGUUCUACAGUCCGACGAUCAGGGCUAGAGUUUUAACUUUUAAUUUUUUAUAUUUAAAUGUAGACUUUUGACACUUUUAAAAAACAAAAAAAGACAAGAGAGAUGAAAACGUUUGAUUAUUUUCUCAGUGUAUUUUUGUACAACAGAGGAUUGAGCAUCA
B2: chr15:93024873:93024975:+|3pUTR|ENSG00000173575|unk|FALSE|unique (ssRNA)
RNA: GGGAGUUCUACAGUCCGACGAUCGGUCCAGCUCUGAUUCGGGUCACCACUCCUGCACUUUGGCACCCCAUCCCAUUCCAGCCUAGUUCUGGCCUCCCACUUUGACGGGCACUUGGAGGAGGAGCUGACUGUGUGUGUACCAGCCAACAGAGGAUUGAGCAUCA
B3: chr17:44319658:44319728:-|3pUTR|ENSG00000013306|msi1_unk|total|mutant (ssRNA)
RNA: GGGAGUUCUACAGUCCGACGAUCUCCCUGUGUUUGCUGCCGCUGGGCAUGUCUCCAGGAACCAAGAAGCCCUCAGCCUGGUGCCGUCUCCCUGACCCUUGUUAAUUCCUUAAGUCUAAAGAUGAUGAACUUCUGCCUGGUGCCCAACAGAGGAUUGAGCAUCA
B4: ENSG00000124766:be:win_1151|CDS|ENSG00000124766|bound_else_gene|NA|bound_elsewhere_windowed (ssRNA)
RNA: GGGAGUUCUACAGUCCGACGAUCCCCACUCCUCCUCUUCCUCCUCCUCGGGCUCCUCGUCCUCCGACGACGAGUUCGAAGACGACCUGCUCGACCUGAACCCCAGCUCAAACUUUGAGAGCAUGUCCCUGGGCAGCUUCAGUUCAACAGAGGAUUGAGCAUCA
B5: chr7:32869000:32869101:-|3pUTR|ENSG00000170852|msi1|total|mutant (ssRNA)
RNA: GGGAGUUCUACAGUCCGACGAUCAAUUGAGAAACUUUAUGUGUAAUCAUGAGAGUAUAAGAAUCUGGAUUAUCUAACAUUGUCCGCCCUGUGUAUGUACAGUUCAAAAAGUUCAUUUAUAAAAGCCGUUUCCUGUUCCCCGUGCAACAGAGGAUUGAGCAUCA
B6: chr13:19825080:19825183:-|CDS|ENSG00000132950|unk|FALSE|unique (ssRNA)
RNA: GGGAGUUCUACAGUCCGACGAUCUUUUAGAGAAGAAAAUGAGAAACAAUUAUAUGGAUCGUCAAAUACACUUUUGAAAAAAAUAGAGGGAAUCCCAGAAAAAAAGGAAAAGACUUCACAGCUACAGCUUUCAGUAGAAUGUGGCAACAGAGGAUUGAGCAUCA
B7: chr12:32755127:32755228:-|CDS|ENSG00000139131|unk|total|mutant (ssRNA)
RNA: GGGAGUUCUACAGUCCGACGAUCCUUCUAUUACCUCUUCCAGCGUUAUGGAUGCAGGGUCCAGCUGGGCGGAUCUGAUCAACCCGGCAACAUCAUGUCCGGAUAUGAGUUCAUCAACAAGUAAGUGCCUUUAAACCUUGGGGACAACAGAGGAUUGAGCAUCA
B8: chr5:72198766:72198867:+|CDS|ENSG00000131711|msi1_unk|total|mutant (ssRNA)
RNA: GGGAGUUCUACAGUCCGACGAUCUUCUACCUCUGCAGUCAAAGAGAAAACAGCAACUUGCCACAGUUCCUCUUCUCCACCAACCGAUGCAGCAUCCGCAGAGCCCUAUGGCUUCCGUGCCUCAGUGUUAUUCGAUACAAUGCACAACAGAGGAUUGAGCAUCA
B9: chr16:84129640:84129741:-|CDS|ENSG00000103160|unk|FALSE|unique (ssRNA)
RNA: GGGAGUUCUACAGUCCGACGAUCCUUGCAAUAUGAAUAUGCCUCUAAAGGAAUCUUUGUACAGAGUCUAAUCCCUUUCUAUGUAGCCACCAGCAUGACAGCACCCAGCAACUUUCUGCACAGGUGCUCGUGGUUGGUGCCUUCCAACAGAGGAUUGAGCAUCA
B10: chr11:8980169:8983969:-|three_prime_utr|ENSG00000175352|control|control|control (ssRNA)
RNA: GGGAGUUCUACAGUCCGACGAUCAAUUAUACUACAAAUCCACCCUUCCCCACACCCAGAGUUCAUCACCCCACAAAACUCUGUAGUGCACACAUCAGAAUGAGCAAUGGUGAUGCCACACAGAGUGGUAGGGAAAUGACUAGCCAACAGAGGAUUGAGCAUCA
B11: ENSG00000198589:be:win_1701|CDS|ENSG00000198589|bound_else_gene|NA|bound_elsewhere_windowed (ssRNA)
RNA: GGGAGUUCUACAGUCCGACGAUCAUUGUGUGAUCACGUUCUUCUUAAUCCUGCCAUAUGGAUUCAUACCCCAGCCAAGGUUCAACUGAUGCUCUAUACUUAUCUGUCCACGGAAUUCAUUGGUACAGUCAACAUAUAUAACACCAACAGAGGAUUGAGCAUCA
B12: chr11:10797513:10797714:-|3pUTR|ENSG00000110321|msi1_unk|FALSE|overlapping (ssRNA)
RNA: GGGAGUUCUACAGUCCGACGAUCUUCUGCAUAAGGUUUUUUUGUAGUGUAAUGUCUUAAUCAUAGUCUACCAUCAAAUAUUUUAGGAGUAUCUUUAAUGUUUAGAUAGUAUAUUAGCAGCAUGCAAUAAUUACAUCAUAAGUUCAACAGAGGAUUGAGCAUCA
B13: ENSG00000107863:be:win_3701|CDS|ENSG00000107863|bound_else_gene|NA|bound_elsewhere_windowed (ssRNA)
RNA: GGGAGUUCUACAGUCCGACGAUCUCUUCACAAAUGAUAAAUAUGCUGAUUUUAUUGAAGCCAAUCGUAAAGAAGAUCCUCUAGAUCGUCUGAAAACAUUAAAAAGACUAAUUCACGAUUUGCCUGAACAUCAUUAUGAAACACCAACAGAGGAUUGAGCAUCA
B14: chr6:43570573:43570674:-|CDS|ENSG00000124571|unk|total|mutant (ssRNA)
RNA: GGGAGUUCUACAGUCCGACGAUCGGUGCCGGAAACACAGACAGAAUUGGUGAUGUUUAUCCUUUUGCGACUGGCAGAGGAUGCCGUGACUUUUCAGACACUUCCCCCUCAAAGAAGAAGGGACAUCCAGCAAACAUUAACCCACAACAGAGGAUUGAGCAUCA
B15: chr7:107760707:107760808:+|3pUTR|ENSG00000105879|unk|total|mutant (ssRNA)
RNA: GGGAGUUCUACAGUCCGACGAUCAAACAUGAAAUAUGCCGUAUGCAGAUAUCAUUUAUCCGACCGUUUGCCGUGUAUACAUUCCGAACAUACUUCUUUUGACAAAGGGUGAUCUGAUUGCUAAUUUACCAUUUUAUUCUGUCACAACAGAGGAUUGAGCAUCA
B16: ENSG00000135018:stop:overlap|stop_codon|ENSG00000135018|stop_codon|NA|stop_codon (ssRNA)
RNA: GGGAGUUCUACAGUCCGACGAUCUAGCAACAGGAGGUGAUAUCAAUGCAGCUAUUGAAAGGUUACUGGGCUCCCAGCCAUCAUAGCAGCAUUUCUGUAUCUUGAAAAAAUGUAAUUUAUUUUUGAUAACGGCUCUUAAACUUUCAACAGAGGAUUGAGCAUCA
B17: ENSG00000140564:stop:overlap|stop_codon|ENSG00000140564|stop_codon|NA|stop_codon (ssRNA)
RNA: GGGAGUUCUACAGUCCGACGAUCGCACGGCACACGGUGUGCGGGGGAAGUGGCUGCGGUGGCCAACAACGGUGUCUGUGGUGUAGGUGUGGCCUACAACGCCCGCAUUGGAGGGGUGCGCAUGCUGGAUGGCGAGGUGACAGACAACAGAGGAUUGAGCAUCA
B18: chr6:26414640:26414744:+|3pUTR|ENSG00000026950|unk|FALSE|unique (ssRNA)
RNA: GGGAGUUCUACAGUCCGACGAUCCAGGCAGAGCAAAUACCCUAGAGAUUCUCUGUGAUAUAGGAAAUUUGGAUGAAGGGAGCUAGAAGAAAUACAGGGAUUUUUUUUUUUUUUUAAGAUGGAGUCUUACUCUGUUGCUAGGCUCAACAGAGGAUUGAGCAUCA
B19: chr17:81921741:81921842:-|3pUTR|ENSG00000197063|msi1|FALSE|unique (ssRNA)
RNA: GGGAGUUCUACAGUCCGACGAUCAAUUAUAUGUUUAAAAGUUAAAGAAAAAAGAGCUGCAGAGUAUUUAUAAAACUGUCUUUUAGAAAAAAAACAAGCAAGAAGACCAUUUGACCAUAUGAAUGGAAAAGGGAAGAAAGUAUACAACAGAGGAUUGAGCAUCA
B20: chr2:48962156:48962732:-|three_prime_utr|ENSG00000170820|control|control|control (ssRNA)
RNA: GGGAGUUCUACAGUCCGACGAUCUAUUCCUGGCAUACCUUUAAGGUAAAUUGGUCAGGAACUAUUAAUUCCAUGUGAUACAUUAGGAAGCUGAAUUAUUAGUAACAACAAUAAUAAUUAAAGAAUGCAAUACUGUAUUACAUACAACAGAGGAUUGAGCAUCA
B21: chr12:39369705:39369875:-|CDS|ENSG00000139116|unk|total|mutant (ssRNA)
RNA: GGGAGUUCUACAGUCCGACGAUCGGGUAUUAUUUCUCGAGCUGUUAAACACCUUUUUAAGAGUAUUGAAGAAAAAAAACACACCGCAAUUAAAAAUGGGCUUCCUGCUCCAGAUUUUAAAGUGAAUGCCCAAUUCUCCGAGGUCAACAGAGGAUUGAGCAUCA
B22: chr15:49644301:49644402:+|3pUTR|ENSG00000104047|msi1|total|mutant (ssRNA)
RNA: GGGAGUUCUACAGUCCGACGAUCAAUAAUUGAAGCCUACCUGCCCGUGGCCAUCUCUGCUGCCAGGUGAAAAGAGCCUGACUCCGAAUGAAGUCAGCGAAGGAAAGCAGAGUGGAGAGAAAAAGAGAGACUGAGUCCUGAUGACAACAGAGGAUUGAGCAUCA

This is one part of the list.

For this assay, the target named is MSI1 full-length (mouse, UniProt Q61474 1-362). The assay can be described thus: nsRBNS (natural sequence RNA bind-n-seq); RBNS binding buffer (assumed for nsRBNS): 25 mM Tris pH 7.5, 150 mM KCl, 3 mM MgCl2, 0.01% Triton X-100, 500 ug/ml BSA, 20 U/ml SUPERase-In, 4 C; UNK is unkempt and MSI1 is Musashi-1; names of the RNAs are library labels; protein concentration not given here; high values mean tight binding.
Chain of UniProt Q61474 (Q61474 whole entry): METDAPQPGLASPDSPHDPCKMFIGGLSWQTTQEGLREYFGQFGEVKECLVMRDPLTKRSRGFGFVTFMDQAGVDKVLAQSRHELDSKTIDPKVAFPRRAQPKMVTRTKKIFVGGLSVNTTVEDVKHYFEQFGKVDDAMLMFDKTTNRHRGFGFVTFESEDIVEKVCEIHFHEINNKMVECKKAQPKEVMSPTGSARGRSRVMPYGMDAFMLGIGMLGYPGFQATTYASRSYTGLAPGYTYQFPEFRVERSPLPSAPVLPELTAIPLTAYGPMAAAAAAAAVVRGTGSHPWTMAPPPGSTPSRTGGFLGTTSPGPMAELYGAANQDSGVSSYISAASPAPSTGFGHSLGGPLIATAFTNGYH
B1 came in with a binding signal of 7.13 enrichment R. The value for B2 was 1.96 enrichment R; that for B3 was 1.01 enrichment R; that for B4 was 0.624 enrichment R.

B5: the binding signal is 0.877 enrichment R.

Consider B6, for which the binding signal came to 4.78 enrichment R. On to B7, for which the binding signal stood at 0.301 enrichment R. In turn, B8 had a binding signal of 0.357 enrichment R.

In turn, B9 showed a binding signal of 0.293 enrichment R. The value for B10 was 0.97 enrichment R; that for B11 was 0.327 enrichment R; that for B12 was 4.18 enrichment R. The value for B13 was 0.374 enrichment R; that for B14 was 0.4 enrichment R. B15 returned a binding signal of 0.319 enrichment R.

As for B16, the binding signal stood at 0.35 enrichment R. Under B17 stands 7.13 enrichment R; under B18, 2.25 enrichment R. The value for B19 was 7.59 enrichment R; that for B20 was 0.538 enrichment R; that for B21 was 0.865 enrichment R.

The molecule B22 showed a binding signal of 0.424 enrichment R.

Values taken from paper PMC12136788.
